Measured values from patent JP2021165268A (dated 2021).

T1: huD1-Fc (human, UniProt P22607 23-126)
T1 construct: domain: D1; also called huFGFR3-D1; hFGFR3-D1; not shown: Fc part
T1 sequence: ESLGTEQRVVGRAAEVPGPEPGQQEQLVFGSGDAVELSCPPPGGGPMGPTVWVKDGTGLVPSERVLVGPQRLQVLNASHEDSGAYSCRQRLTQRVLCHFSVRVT

T2: huD2-Fc (human, UniProt P22607 151-244)
T2 construct: domain: D2; also called huFGFR3-D2; human FGFR3c D2 domain; not shown: Fc part
T2 sequence: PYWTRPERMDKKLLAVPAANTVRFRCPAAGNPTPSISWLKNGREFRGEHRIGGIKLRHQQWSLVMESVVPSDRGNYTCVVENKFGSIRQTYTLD


Assays:
huD1-Fc = molecular target: T1, huD1-Fc; assay: ELISA, plate-coated antigen, fynomer with 9E10
huD2-Fc = molecular target: T2, huD2-Fc; assay: ELISA, plate-coated antigen, fynomer with 9E10

Row | binding result (huD1-Fc) | binding result (huD2-Fc) | Binder
1 | no binding (tested: 200 nM fynomer) | no binding (tested: 200 nM fynomer) | FF44L65G12 (designed binder, C-terminal myc-His6 tag; not shown: C-terminal myc-hexahistidine tag (pQE12 construct)) GVTLFVALYDYEVYGPTPMLSFHKGEKFQILRGGQGPYWEARSLTTGETGLIPSNYVAPVDSIQ
2 | no binding (tested: 200 nM fynomer) | no binding (tested: 200 nM fynomer) | FF44L65G7 (designed binder, C-terminal myc-His6 tag; not shown: C-terminal myc-hexahistidine tag (pQE12 construct)) GVTLFVALYDYEVYGPTPMLSFHKGEKFQILRGGDGPYWEARSLTTGETGLIPSNYVAPVDSIQ
3 | no binding (tested: 200 nM fynomer) | no binding (tested: 200 nM fynomer) | FF2L4C3 (designed binder, also called parent fynomer; not shown: C-terminal myc-hexahistidine tag (pQE12 construct)) GVTLFVALYDYEVYGPTPMLSFHKGEKFQILNSSEGPYWEARSLTTGETGLIPSNYVAPVDSIQ
4 | no binding (tested: 200 nM fynomer) | no binding (tested: 200 nM fynomer) | FF48L66G7 (designed binder, C-terminal myc-His6 tag; not shown: C-terminal myc-hexahistidine tag (pQE12 construct)) GVTLFVALYDYEVYGPTPMLSFHKGEKFQILKGGSGPYWEARSLTTGETGLIPSNYVAPVDSIQ
5 | no binding (tested: 200 nM fynomer) | no binding (tested: 200 nM fynomer) | FF43L65D5 (designed binder, C-terminal myc-His6 tag; not shown: C-terminal myc-hexahistidine tag (pQE12 construct)) GVTLFVALYDYEVYGPTPMLSFHKGEKFQILRKGKGPYWEARSLATGETGLIPSNYVAPVDSIQ
6 | no binding (tested: 200 nM fynomer) | no binding (tested: 200 nM fynomer) | FF44L65B7 (designed binder, Fynomer derived from FF2L4C3; C-terminal myc-His6 tag; not shown: C-terminal myc-hexahistidine tag (pQE12 construct)) GVTLFVALYDYEVYGPTPMLSFHKGEKFQILRRGSGPYWEARSLTTGETGLIPSNYVAPVDSIQ
